# From the RNAGym collection of RNA variant scans (doi:10.7554/elife.90254)
# The source gives no read counts; variants with many changes may rest on few reads.
# B1: LINE1-mini (parent)
# chain: GGCAGAGCUCAACACAGCGUGGCAAAGUGGCUGUGGCUAGACUGCC
# Variants of: B1
# Assay: self-cleavage, relative activity (ratio to wild type); higher = more cleavage; in vitro, sequencing; the parent is a self-cleaving ribozyme
row,Variant,self-cleavage
1,C8A C10U C31A C46A,0.09
2,C8A C10U C31G,0.03
3,C8A C10U C37U G40A,0.02
4,C8A C10U U20A G30U,0.04
5,C8A C13A A16G A26C U32C U34C,0.03
6,C8A C13A A16U A26U A41C,0.07
7,C8A C13A C15U U34A,0.02
8,C8A C13A C18A G33A,0.14
9,C8A C13A C18G A25C U28G,0.16
10,C8A C13A C18G G21A C45U,0.14
11,C8A C13A C18G U20C,0.13
12,C8A C13A C23A A24U G44C,0.15
13,C8A C13A G19A,0.22
14,C8A C13A G40U C46A,0.03
15,C8A C13G A14G,0.18
16,C8A C13G A16G G22A A41C U43A,0.01
17,C8A C13G A26U,1.36
18,C8A C13G C46A,0.02
19,C8A C13G G19C G30U U43A,0.12
20,C8A C13G G21C C37A,0.02
21,C8A C13G U28A,0.92

row,Variant,self-cleavage
1,C8A C13G U34A C37U C42G,0.49
2,C8A C13U A14C U20C,0.19
3,C8A C13U A14U C18U C45U,0.23
4,C8A C13U A16C A26C C37G,0.62
5,C8A C13U A16U A24U C31G C42A,0.23
6,C8A C13U C15G U32G G36A,0.08
7,C8A C13U G17A C18G,0.29
8,C8A C13U G29A G40U,0.21
9,C8A C13U G33A,0.08
10,C8A C13U G33C,0.09
11,C8A C13U G40A,0.4
12,C8A C15A A24G,0.27
13,C8A C15A A26U U38G G40U,0.05
14,C8A C15A A41C,0.32
15,C8A C15A C31U G33A,0.28
16,C8A C15A C37G A39C C42U C45U,0.25
17,C8A C15A G35U,0.26
18,C8A C15A U28C G30U G35U C37A,0
19,C8A C15G C18U,0.19
20,C8A C15G C18U U38C,0.16
21,C8A C15G C23A C31A,0.04

row,Variant,self-cleavage
1,C8A C15G C45A,0.18
2,C8A C15G G35U C46A,0.13
3,C8A C15G G40A,0.33
4,C8A C15G U32C,0.14
5,C8A C15U C18A A25G G27U G30U C37A U38G,0.01
6,C8A C15U G22C G36C,0.34
7,C8A C15U G30C C45A,0.03
8,C8A C15U G33C,0.07
9,C8A C15U U38G,0.14
10,C8A C18A A39C,0.24
11,C8A C18A C23G G44A,0.29
12,C8A C18A C31A,0.24
13,C8A C18A C37A,0.01
14,C8A C18A G21C G40U A41G,0.09
15,C8A C18A G21U,0.14
16,C8A C18A G22C C31A,0.44
17,C8A C18A G29A,0.14
18,C8A C18A G44U,0.45
19,C8A C18G A26U G33U,0.06
20,C8A C18G C37A G44A,1
21,C8A C18G C37G,0.57

row,Variant,self-cleavage
1,C8A C18G G29A U43A,0.02
2,C8A C18G G35A,0.22
3,C8A C18G G36U C37A C45U,0.36
4,C8A C18G U28G G35U A39G,0.06
5,C8A C18U A39C,0.29
6,C8A C18U A39U,0.05
7,C8A C18U C42U,0.25
8,C8A C18U G19C G29U G36A,0.1
9,C8A C18U G27U U34G G40C,0.09
10,C8A C18U G29U C46U,0.1
11,C8A C18U U20A G22A C46A,0.25
12,C8A C18U U28A,0.4
13,C8A C23A A25C,0.33
14,C8A C23A A25U G33A U43C G44A,0.2
15,C8A C23A C31A C42A,0.18
16,C8A C23A C31U G35C,0.14
17,C8A C23A G27U A41U,0.04
18,C8A C23A G29A U34C,0.19
19,C8A C23A G29U A39U,0.1
20,C8A C23U A26U U38G A41G C46U,0.02
